The structures appear in SMILES notation. Screen size: about 310,000 compounds; about 14,000 (4.5%) showed an effect of 50% or more. The effect is printed as a negative number. The list shows a part of the results.
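Also: peak tail current of the secondary pulse compared with the same well before compound.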

The test deals with human ether-à-go-go-related gene (hERG) potassium channel (human, UniProt Q12809). As to the kind of experiment: primary screen, population patch clamp on CHO cells stably expressing hERG.
Chain of human ether-à-go-go-related gene (hERG) potassium channel (Q12809 whole entry, looked up): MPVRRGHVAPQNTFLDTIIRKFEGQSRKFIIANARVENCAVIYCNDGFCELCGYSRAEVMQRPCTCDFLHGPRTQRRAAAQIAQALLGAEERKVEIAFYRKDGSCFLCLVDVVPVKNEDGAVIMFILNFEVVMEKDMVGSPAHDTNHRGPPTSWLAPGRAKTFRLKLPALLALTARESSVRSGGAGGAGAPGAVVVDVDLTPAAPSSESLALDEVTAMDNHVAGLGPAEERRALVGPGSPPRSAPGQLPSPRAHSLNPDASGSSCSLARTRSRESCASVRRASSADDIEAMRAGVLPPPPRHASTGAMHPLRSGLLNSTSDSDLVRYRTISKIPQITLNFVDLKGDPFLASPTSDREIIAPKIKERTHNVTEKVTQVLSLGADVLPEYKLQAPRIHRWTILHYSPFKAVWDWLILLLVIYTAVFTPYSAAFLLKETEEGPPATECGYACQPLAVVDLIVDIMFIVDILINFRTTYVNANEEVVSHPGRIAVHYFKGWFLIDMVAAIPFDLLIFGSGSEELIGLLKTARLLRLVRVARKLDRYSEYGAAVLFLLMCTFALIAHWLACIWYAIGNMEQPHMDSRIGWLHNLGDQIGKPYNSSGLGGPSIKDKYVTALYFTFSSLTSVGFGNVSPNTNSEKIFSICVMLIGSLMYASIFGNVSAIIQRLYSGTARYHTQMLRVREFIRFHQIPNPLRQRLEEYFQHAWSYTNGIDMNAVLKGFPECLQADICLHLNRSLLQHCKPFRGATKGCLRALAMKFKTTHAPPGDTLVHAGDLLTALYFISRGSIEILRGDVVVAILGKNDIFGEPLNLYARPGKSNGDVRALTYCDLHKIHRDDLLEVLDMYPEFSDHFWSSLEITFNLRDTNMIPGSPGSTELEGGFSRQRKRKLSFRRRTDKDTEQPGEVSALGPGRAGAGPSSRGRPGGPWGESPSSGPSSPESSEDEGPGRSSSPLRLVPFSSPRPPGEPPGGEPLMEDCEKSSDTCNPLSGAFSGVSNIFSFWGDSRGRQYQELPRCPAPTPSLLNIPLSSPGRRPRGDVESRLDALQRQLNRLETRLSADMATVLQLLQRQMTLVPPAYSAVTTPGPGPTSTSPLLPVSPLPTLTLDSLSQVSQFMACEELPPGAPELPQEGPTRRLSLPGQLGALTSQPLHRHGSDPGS
Regarding `Cc1c(C(=O)CN2CCCC(C)(C)C2)c2ccccc2n1C`, the “hERG current change (%, negative = inhibition) at 10uM” value came out at 1.31%.
`O=C(Nc1ccc2ncccc2c1)c1ccccc1`: the “hERG current change (%, negative = inhibition) at 10uM” value is on record as 10.4%.
As for `CC1(C)C/C(=N/Nc2ccc([N+](=O)[O-])cc2[N+](=O)[O-])C(C)(C)O1`, the “hERG current change (%, negative = inhibition) at 10uM” value is 6.56%.
`Cc1cccc(C(=O)N2CCN(c3ccccn3)CC2)c1`: the “hERG current change (%, negative = inhibition) at 10uM” value is recorded as 5.4%.
Then `CCOC(=O)c1ccc(NC(=O)C2C3C=CC(O3)C2C(=O)O)cc1` (stereo not shown), with 7.63%.
As for `Cc1cccc(-c2nnc(SCC(=O)Nc3ncccn3)n2C)c1`, the “hERG current change (%, negative = inhibition) at 10uM” value is 1.62%.
Take `CCN1C(=O)c2cccc3c(NC(=O)c4cccc(N5C(=O)CCC5=O)c4)ccc1c23`: the “hERG current change (%, negative = inhibition) at 10uM” value is on record as -6.22%.
Then `O=C(c1ccc(Br)o1)N1CCC(c2nc3ccccc3[nH]2)CC1`, with -36.5%; and `O=C(O)CSC12CC3CC(C1)CC(C(=O)O)(C3)C2`, with 18.1%.
With `COc1ccc(C2C(C#N)=C(N)N(c3cccnc3)C3=C2C(=O)CC(C)(C)C3)cc1OC` (stereo not shown), the “hERG current change (%, negative = inhibition) at 10uM” value is listed as -4.55%.
As to `Cc1ccc(S(=O)(=O)N2CCCCC2C(=O)N(C)c2ccccc2)cc1` (stereo not shown), the “hERG current change (%, negative = inhibition) at 10uM” value is -0.169%.
In the case of `Cc1noc(C)c1COc1cccc(C(=O)N2CCN(C/C=C/c3ccccc3)CC2)c1`, the “hERG current change (%, negative = inhibition) at 10uM” value is reported as -31.1%.
As for `COc1ccc(CNC(=O)c2ccc(NC(=O)C3CCCO3)cc2)cc1` (stereo not shown), the “hERG current change (%, negative = inhibition) at 10uM” value is -4.91%.
Regarding `CN(C)C(CNC(=O)Cc1ccc(Br)cc1)c1ccccc1` (stereo not shown), the “hERG current change (%, negative = inhibition) at 10uM” value is recorded as -17.8%.
Then `Cc1cccc(NNC(=O)C2CCC2)c1`, with -1.35%.
Turning to `COc1cccc(-c2c(NC(=O)c3ccco3)oc3ccc(Cl)cc3c2=O)c1`, the “hERG current change (%, negative = inhibition) at 10uM” value is given as 9.72%.
Turning to `CCC1CCCCN1C(=O)CSc1nnc(-c2c[nH]c3ccccc23)o1` (stereo not shown), the “hERG current change (%, negative = inhibition) at 10uM” value is listed as 7.07%.
Take `C/C(=N\O)c1oc2ccc3c(C)cc(=O)oc3c2c1C`: the “hERG current change (%, negative = inhibition) at 10uM” value is 7.94%.
As for `O=C(Nc1ccc(Oc2ncnc3cc(Cl)ccc23)nc1)c1cccs1`, the “hERG current change (%, negative = inhibition) at 10uM” value turned out to be 6.53%.
Take `Cc1cc(-c2nnc(CCC(=O)N3CCN(Cc4cccnc4)CC3)o2)c(C)o1`: the “hERG current change (%, negative = inhibition) at 10uM” value is 0.364%.
Then `CCOC(=O)N1CCN(C(=O)CNC(=O)c2nn(-c3ccc(OC)cc3)c(=O)c3ccccc23)CC1`, with -6.53%; and `O=C(Nc1ccc(OC(F)(F)C(F)F)c(NC(=O)c2cccc(F)c2)c1)c1cccc(F)c1`, with 2.42%; and `COC(=O)C1(CCSC)NC(c2ccc(OC)cc2OC)C2C(=O)N(c3cccc(C(C)=O)c3)C(=O)C21` (stereo not shown), with 0.658%.
Then `CN(C(=O)c1ccc(-c2nn(C)c(=O)c3ccccc23)cc1)c1ccccc1`, with -14.8%.
As to `Cc1ccc(Cc2c(C)c(C#N)c3[nH]c4ccccc4n3c2=O)cc1`, the “hERG current change (%, negative = inhibition) at 10uM” value worked out at 11.4%.
Regarding `CN(CC(=O)NCCN1CCCCCC1)S(=O)(=O)c1cccc2nsnc12`, the “hERG current change (%, negative = inhibition) at 10uM” value is -3.32%.
Take `O=C(CSc1cccc2cccnc12)OCC(=O)c1ccc(Br)cc1`: the “hERG current change (%, negative = inhibition) at 10uM” value was found to be 4.26%.
Then `COc1ccc(NC(=O)CSc2nccn2Cc2ccccc2)cc1`, with -4.86%; and `O=C(O)CC(c1ccccc1)N1C(=O)c2cccc([N+](=O)[O-])c2C1=O` (stereo not shown), with 22.8%.
Then `Br.CCO.NCCCCCC(=O)OC1N=C(c2ccccc2Cl)c2cc(Br)ccc2NC1=O` (stereo not shown), with -11.6%; and `O=C(CSc1nnc(NC(=O)c2ccccc2F)s1)NC1CC1`, with 19.2%; and `Cc1cc(S(=O)(=O)N(Cc2ccc(F)cc2)CC2CCCO2)ccc1-n1cnnn1` (stereo not shown), with -47.6%.
As to `CC1(c2ccccc2)NC(=O)N(CC(=O)Nc2cc(Cl)ccc2N2CCOCC2)C1=O` (stereo not shown), the “hERG current change (%, negative = inhibition) at 10uM” value is recorded as -12%.
As for `CCCNc1ncccc1C(N)=O`, the “hERG current change (%, negative = inhibition) at 10uM” value was 7.62%.
Then `O=CNc1ccc(S(=O)(=O)NCc2ccccc2)cc1`, with -26.1%; and `CCN(Cc1ccccc1)C(=O)CN1C(=S)NC(C)(C)CC1C` (stereo not shown), with -30.5%; and `CCOC(=O)C1(C(=O)OCC)CC1c1ccccc1` (stereo not shown), with 3.98%.
Then `O=C1CN(C(=O)CSc2nc3cc(Cl)ccc3c(=O)n2Cc2ccccc2)c2ccccc2N1`, with -7.33%.
Regarding `CN1CCN(C(=S)c2cn(CCOc3ccccc3F)c3ccccc23)CC1`, the “hERG current change (%, negative = inhibition) at 10uM” value is 7.01%.
Regarding `O=C(CN1C(=O)CSc2ccc(S(=O)(=O)N3CCOCC3)cc21)NCCCN1CCCCC1`, the “hERG current change (%, negative = inhibition) at 10uM” value was 18%.
Consider `CC(=O)NC1c2ccccc2C(=O)N1Cc1ccccc1` (stereo not shown), for which the “hERG current change (%, negative = inhibition) at 10uM” value was -8.06%.
Regarding `CCc1noc(C)c1C(=O)Nc1ccc(S(=O)(=O)N2CCCC(C)C2)cc1` (stereo not shown), the “hERG current change (%, negative = inhibition) at 10uM” value is recorded as -12.1%.
In the case of `Cc1ccc(C)c(NC(=O)C2CC(Cl)=CCC2C(=O)O)c1` (stereo not shown), the “hERG current change (%, negative = inhibition) at 10uM” value is recorded as 5.5%.
`O=C(N/N=C/c1cccc(OC(=O)c2ccco2)c1)c1ccc(F)cc1`: the “hERG current change (%, negative = inhibition) at 10uM” value was -8.56%.
With `Cc1cccc(C)c1NC(=O)C1(NC(=O)c2cnccn2)CCCCC1`, the “hERG current change (%, negative = inhibition) at 10uM” value is recorded as 14.4%.
Turning to `COc1ccccc1NC(=O)C(C)N1C(=O)C2CCCCC2C1=O` (stereo not shown), the “hERG current change (%, negative = inhibition) at 10uM” value is 14.1%.
Consider `CC(=O)N(C)c1ccc(NC(=O)c2ccc([N+](=O)[O-])cc2Cl)cc1`, for which the “hERG current change (%, negative = inhibition) at 10uM” value is listed as -13.5%.
`COc1ccc(CCN2C(=O)CSC2=Nc2ccc(C)cc2C)cc1OC`: the “hERG current change (%, negative = inhibition) at 10uM” value is on record as 14.9%.
As for `COc1ccc(N2C(=O)C3CCCN3C2c2cc(OC)c(OC)cc2OC)cc1` (stereo not shown), the “hERG current change (%, negative = inhibition) at 10uM” value was -4.23%.
`NC1=NC(=O)C2(COC(c3cccnc3)OC2)S1` (stereo not shown): the “hERG current change (%, negative = inhibition) at 10uM” value amounted to 17.9%.
As for `Cc1ccc(CNc2cccnc2)cc1`, the figure is 2.23%; as for `COc1cc(/C=C(/NC(=O)c2ccccc2Cl)C(=O)O)cc(OC)c1OC`, 21.9%.
Take `CCOc1ccc(NC(=O)CN(C)C(=O)c2cc(-c3ccc(OC)cc3)nc3ccccc23)cc1OCC`: the “hERG current change (%, negative = inhibition) at 10uM” value was -2.15%.
Regarding `CCOC(=O)c1c(NC(=O)CN2CCN(c3ccc(Cl)cc3)CC2)sc(C)c1C`, the “hERG current change (%, negative = inhibition) at 10uM” value was -14.9%.
Take `O=C(O)c1cc2c(ccc3ccccc32)o1`: the “hERG current change (%, negative = inhibition) at 10uM” value came to 4.33%.

Values taken from PMC4336329 (PLoS ONE, 2015).
